According to article PMC10083269, “Basic characterization of antibodies targeting receptors of the tumor necrosis factor receptor superfamily” (Frontiers in Immunology, 2023):
Blank lines part the entries; values can stand above or below the binder they belong to.

How the values were obtained:
[1] = target: T1, 3xVHH(4H04)-Fc(DANA); experiment: cellular competition binding with a GpL-TNFL fusion protein; HT1080 transfectants (2 x 10^4 per well) incubated with an excess of the GpL-free antibody (10 µg/ml) or VHH Fc fusion protein for 30 minutes, then GpL-TNFL added at a concentration close to its KD (typically 1 - 100 ng/ml); remaining specific binding against TNFR negative HT1080 cells; settings: partners not purified
T1 construct: also called hexavalent Fc fusion protein variant of the 41BB-specific nanobody 4H04; source: HEK293T, transient transfection (PEI); not shown: Fc (human IgG1, DANA-mutated), C-terminal, kept

[2] = target: T2, 3xVHH(V12t)-Fc(DANA); experiment: as above; settings: partners not purified
T2 construct: also called hexavalent Fc fusion protein variant of the CD40-specific nanobody V12t; source: HEK293T, transient transfection (PEI); not shown: Fc (human IgG1, DANA-mutated), C-terminal, kept
T2 sequence (P25942 21-277): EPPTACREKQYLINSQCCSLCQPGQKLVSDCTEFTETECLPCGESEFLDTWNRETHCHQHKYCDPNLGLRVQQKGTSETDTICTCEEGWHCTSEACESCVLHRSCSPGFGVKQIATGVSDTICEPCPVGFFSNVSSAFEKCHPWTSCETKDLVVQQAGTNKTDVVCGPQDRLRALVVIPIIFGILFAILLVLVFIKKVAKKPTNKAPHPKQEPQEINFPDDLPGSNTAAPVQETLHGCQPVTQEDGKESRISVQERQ

T1 sequence (Q07011 24-255): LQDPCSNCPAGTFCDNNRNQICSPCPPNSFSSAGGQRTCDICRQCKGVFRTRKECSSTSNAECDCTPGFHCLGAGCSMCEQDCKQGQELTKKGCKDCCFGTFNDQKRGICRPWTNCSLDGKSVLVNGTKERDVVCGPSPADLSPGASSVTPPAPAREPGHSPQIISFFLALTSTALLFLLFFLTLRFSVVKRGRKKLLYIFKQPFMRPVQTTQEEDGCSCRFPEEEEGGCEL

- binding result [1]: binds
B1: 41BB on HT1080-41BB cells (receptor)
chain: not shown
notes: 41BB expressed on HT1080-41BB transfectants; also called 41BB-expressing cells

- binding result [2]: binds
B2: CD40 on HT1080-CD40 cells (receptor)
chain: not shown
notes: CD40 expressed on HT1080-CD40 transfectants; also called CD40-expressing cells
